In PubChem BioAssay AID463173 (ICCB-Longwood Screening Facility, Harvard Medical School, 2010):
About 1,700 (3.3%) of roughly 52,000 compounds were called active. No stated cut-off is given here; in the data, active means survival mostly below about 52% (no sharp cut-off); inactive means mostly above about 56%. This is one part of the list.

test system: Wild type; assay: growth inhibition of S. aureus wild type versus tarO mutant, primary screen, teichoic acid synthesis inhibitors, RN4220, OD600 (AID 463173); details: S. aureus RN4220 wild type/DeltatarO growth, OD600, 18 h, stronger effect = lower value, screened at 18.75 µg/mL (by protocol)

How did the survival turn out when `CCOc1cccc(C2c3[nH]c4ccccc4c3CCN2C(=O)c2ccccc2F)c1` (centres undefined) was run?
The survival was inactive: 77%.

How did the survival turn out when `CC(=O)c1ccc(NC(=O)Cn2cnc3nc4c(cc3c2=O)CC(C)CC4)cc1` (centres undefined) was run?
Its survival is inactive: 47%.

For `CCOc1ccccc1C(=O)Nc1ccc(S(=O)(=O)Nc2onc(C)c2C)cc1`, which survival is on record?
The survival was inactive: 77%.

With `CCOC(=O)c1cnc2cc(C(F)(F)F)ccc2c1N1CCN(c2cccc(Cl)c2)CC1` as the compound, how does the survival read?
Its survival is inactive: 55%.

How did the survival turn out when `CCOc1cc(CNC(=O)c2ccc(Cn3c(=O)c4cccn4c4cccnc43)cc2)ccc1OC` was run?
The survival was inactive: 86%.

`Cc1ccc(NC(=O)CSc2nc3ccc(NC(=O)c4cccs4)cc3s2)cc1` was tested. Which survival did it give?
The survival was inactive: 90%.

For `COc1ccc(S(=O)(=O)c2cn(CC(=O)Nc3cc(C)ccc3C)c3ccccc3c2=O)cc1`, which survival is on record?
Its survival is inactive: 92%.

For `COc1ccc(S(=O)(=O)n2nc(-c3ccco3)nc2NCc2ccc(N(C)C)cc2)cc1`, which survival is on record?
Its survival is inactive: 83%.

`CCN1CCN(Cc2nc3cc(NC(=O)c4cc(OC)c(OC)c(OC)c4)ccc3n2CC)CC1` was tested. Which survival did it give?
The survival was inactive: 83%.

`Cc1ccc(CNC(=O)N2CCC(CN3CCC(C)CC3)CC2)cc1` was tested. Which survival did it give?
Its survival is inactive: 101%.

Which survival does the source give for `COc1ccc(NC(=O)Cn2cnc3sc(C)c(S(=O)(=O)N4CCN(c5ccccc5OC)CC4)c3c2=O)cc1OC` here?
Its survival is inactive: 73%.

With `CCC1CN(C(=O)NCc2ccc(C)cc2)c2cc(Cl)ccc2O1` (centres undefined) as the compound, how does the survival read?
The survival was inactive: 111%.

With `Cc1ccc2scc(N3CCc4ccccc4C3)c(=O)c2c1` as the compound, how does the survival read?
The survival was inactive: 102%.

Which survival does the source give for `CCc1ccccc1NC(c1nnc(-c2cccc(F)c2)o1)c1ccc(F)cc1Cl` (centres undefined) here?
Its survival is inactive: 86%.

Which survival does the source give for `CC(C)c1ccc(NC(=O)CN2C(=O)COc3ccc(S(=O)(=O)N4CCCCC4)cc32)cc1` here?
Its survival is inactive: 84%.

For `Cc1ccc(C)c(N2CCN(C(=O)Cn3ncc4c(=O)oc5ccccc5c43)CC2)c1`, which survival is on record?
Its survival is inactive: 71%.

`COc1cc(OC)cc(-c2nc3nc(C)c(CCC(=O)Nc4ccc(C)c(C)c4)c(C)n3n2)c1` was tested. Which survival did it give?
The survival was inactive: 90%.

`Cc1cccc(C(=O)NCC(=O)OCc2cc(=O)n3nc(CC(C)C)sc3n2)c1` was tested. Which survival did it give?
The survival was inactive: 119%.

How did the survival turn out when `COc1cccc(C(=O)N2CCN(CCc3ccncc3)CC2)c1` was run?
The survival was inactive: 100%.

How did the survival turn out when `Cc1cccc(-c2cc3nc4c(c(NCCN(C)C)n3n2)CCC4)c1` was run?
Its survival is inactive: 91%.

`CN(C)c1ccc(CNC(=O)c2cccc(NC(=O)N3CCSc4ncccc43)c2)cc1` was tested. Which survival did it give?
Its survival is inactive: 71%.

`Cn1c(=O)c2c(-c3cccc(Br)c3)n(C(C)(C)CO)cc2n(C)c1=O` was tested. Which survival did it give?
The survival was inactive: 87%.

With `S=C(NCCCN1CCOCC1)N1CCN(c2ccccc2)CC1` as the compound, how does the survival read?
Its survival is inactive: 104%.

With `CCCN1CC=C2C(C#N)=C(N)C(C#N)(C#N)C(C(C)C)C2C1` (centres undefined) as the compound, how does the survival read?
Its survival is inactive: 110%.

With `CCC(C(=O)NCc1ccco1)n1nc(C)c2c(C)n(-c3ccc(C)cc3)nc2c1=O` (centres undefined) as the compound, how does the survival read?
The survival was inactive: 75%.

For `C=CCn1c(SC(CCO)C(=O)NCc2ccco2)nc2sc3c(c2c1=O)CCC3` (centres undefined), which survival is on record?
The survival was inactive: 99%.

With `COc1cccc2c1cc1c(=O)n(CC(=O)N3CCN(c4ccc(Cl)cc4)CC3)nc(C)n12` as the compound, how does the survival read?
The survival was inactive: 127%.

`Fc1ccc(Nc2ncnc3onc(-c4cccc(Cl)c4)c23)c(F)c1` was tested. Which survival did it give?
The survival was inactive: 79%.

How did the survival turn out when `Cc1ccc(S(=O)(=O)NC2(C(F)(F)F)NC(=O)N(CCc3ccccc3)C2=O)cc1` (centres undefined) was run?
The survival was inactive: 67%.

With `O=C1N(Cc2ccccc2)c2ccc(Cl)cc2C1(O)c1c[nH]c2ccccc12` (centres undefined) as the compound, how does the survival read?
The survival was inactive: 53%.

With `Cc1cc2nc(-c3ccc(OCc4ccccc4Cl)cc3)cc(C(F)(F)F)n2n1` as the compound, how does the survival read?
Its survival is inactive: 42%.

`COc1ccccc1NC(=O)Cn1c(SCC(=O)N(C)c2ccccc2)nc2ccccc21` was tested. Which survival did it give?
Its survival is inactive: 123%.

How did the survival turn out when `Cc1ccc(NS(=O)(=O)c2ccc3c(c2)n(C)c(=O)n3C)cc1C` was run?
Its survival is inactive: 70%.

Which survival does the source give for `CCOc1ccccc1NC(=O)CSc1nnc2[nH]c(=O)cc(-c3ccccc3)n12` here?
The survival was inactive: 120%.

`Cc1cc(C)cc(NC(=O)Cn2cc(S(=O)(=O)NC(C)(C)C)c(S(=O)(=O)NC(C)(C)C)c2)c1` was tested. Which survival did it give?
Its survival is inactive: 66%.

For `O=C(NCCn1cc(SCc2ccccc2Cl)c2ccccc21)c1cccs1`, which survival is on record?
The survival was inactive: 60%.

`O=C(Nc1ccccc1Cl)C1CCN(c2nc3ccccc3nc2C(F)(F)F)CC1` was tested. Which survival did it give?
Its survival is inactive: 90%.

How did the survival turn out when `O=C(Nc1ccc(F)c(F)c1)c1cc(S(=O)(=O)NC2CCCCCC2)ccc1F` was run?
The survival was inactive: 53%.

`COc1ccc(-n2nc(C(=O)N3CCCC(C)C3)c3c4ccccc4n(C)c3c2=O)cc1` (centres undefined) was tested. Which survival did it give?
The survival was inactive: 95%.

With `CCc1ccc(C(=O)c2cn(CC(=O)NC3CCCCC3)c3nc(C)ccc3c2=O)cc1` as the compound, how does the survival read?
Its survival is inactive: 74%.

How did the survival turn out when `O=C(c1ccccc1)n1nc(-c2ccccc2)nc1NCc1ccc(F)cc1` was run?
Its survival is active: -4%.

`CCOC(=O)c1cc2c(=O)n3ccccc3nc2n(C(C)C)c1=NC(=O)c1cc2ccccc2o1` was tested. Which survival did it give?
Its survival is inactive: 61%.

With `COc1ccc(CNC(=O)CN2C(=O)COc3ccc(S(=O)(=O)Nc4ccccc4)cc32)cc1` as the compound, how does the survival read?
The survival was inactive: 87%.

Which survival does the source give for `CNC(=O)c1c(NC(=O)c2ccc(S(=O)(=O)N3CCCCC3)cc2)sc2c1CCC2` here?
The survival was active: -2%.

Which survival does the source give for `OCCNc1nc(-c2cccnc2)nc2ccccc12` here?
Its survival is inactive: 119%.

For `COc1ccc(-n2ccnc(NCc3ccccc3OC)c2=O)cc1`, which survival is on record?
The survival was inactive: 85%.

For `CCOc1ccc(N2CC(NC(=O)/C=C\c3ccc4c(c3)OCO4)CC2=O)cc1` (centres undefined), which survival is on record?
The survival was inactive: 71%.

Which survival does the source give for `COc1ccc(-c2cc(C(F)(F)F)nc(S(C)(=O)=O)n2)cc1` here?
Its survival is inactive: 98%.

How did the survival turn out when `CC(C)(C)C(=O)Nc1ccc2nc(SCC(=O)N3CCOCC3)sc2c1` was run?
The survival was inactive: 87%.

For `O=S(=O)(Nc1cc(F)ccc1F)c1ccc2[nH]c3c(c2c1)CCCC3`, which survival is on record?
The survival was inactive: 69%.

How did the survival turn out when `CCc1cc2cc(C)cc(C)c2nc1Cl` was run?
Its survival is inactive: 101%.

`CSc1nc2c(c(=O)[nH]1)C(c1cccc(F)c1F)CC(=O)N2` (centres undefined) was tested. Which survival did it give?
The survival was inactive: 115%.

For `NS(=O)(=O)c1ccc(CCNc2nccn(-c3cccc(C(F)(F)F)c3)c2=O)cc1`, which survival is on record?
Its survival is inactive: 99%.

How did the survival turn out when `COc1cccc(CNC(=O)c2ccc3c(c2)c(C)c(C)n3Cc2ccccc2)c1OC` was run?
Its survival is inactive: 70%.

For `CC(C)c1ccc(NC(=O)CS(=O)(=O)c2cccc3nsnc23)cc1`, which survival is on record?
The survival was inactive: 74%.

For `CCCCN(CCCC)CCNC(=O)Cn1nc(C)n2c(cc3sccc32)c1=O`, which survival is on record?
Its survival is inactive: 89%.

For `COc1cccc(CNn2cnnc2)c1O`, which survival is on record?
Its survival is inactive: 111%.

How did the survival turn out when `O=c1c2oc3ccccc3c2n(Cc2cccc(Cl)c2)c(=O)n1Cc1ccco1` was run?
The survival was inactive: 57%.

`Cc1ccc2occ(CC(=O)N(Cc3ccc(Cl)cc3)C3CCS(=O)(=O)C3)c2c1` (centres undefined) was tested. Which survival did it give?
The survival was inactive: 78%.

`COc1ccc(-c2cc(C(F)(F)F)nc(SCCC(=O)Nc3ccccc3F)n2)cc1` was tested. Which survival did it give?
The survival was inactive: 65%.

How did the survival turn out when `CCOC(=O)c1ccccc1NC(=O)CSc1ccc(-c2cccs2)nn1` was run?
The survival was inactive: 80%.

Which survival does the source give for `O=C(Cc1ccccc1)NC1CC(=O)N(c2ccccc2)C1` (centres undefined) here?
The survival was inactive: 76%.

How did the survival turn out when `CCC(=O)N1N=C2CCCCC2C1(O)C(F)(F)F` (centres undefined) was run?
Its survival is inactive: 105%.

Which survival does the source give for `COc1ccccc1N1CCN(C(=O)CN2C(=O)COc3ccc(S(=O)(=O)N4CCCCCC4)cc32)CC1` here?
The survival was inactive: 89%.

Which survival does the source give for `Cc1cccc(OCC(=O)Nc2nc3c(s2)CC(C(C)(C)C)CC3)c1C` (centres undefined) here?
Its survival is inactive: 108%.

For `CCc1ccc(Nc2nn(-c3ccc(OC(F)(F)F)cc3)nc2C(C)=O)cc1`, which survival is on record?
Its survival is inactive: 88%.

With `Cn1cc(S(=O)(=O)c2cccc(Cl)c2)c(=O)c2cc(F)c(N3CCN(c4ccc(F)cc4)CC3)cc21` as the compound, how does the survival read?
The survival was inactive: 81%.

Which survival does the source give for `Cc1ccc(-c2noc(CNS(=O)(=O)c3ccc(F)cc3)n2)cc1` here?
Its survival is inactive: 84%.

How did the survival turn out when `Cc1nnc(N2CCN(C(=O)NC(C)C)CC2)c2nn(-c3ccccc3)c(C)c12` was run?
The survival was inactive: 75%.

How did the survival turn out when `Cc1c(NC(=O)c2cc(-c3ccc(F)cc3)on2)c(=O)n(-c2ccccc2)n1C` was run?
The survival was inactive: 82%.

`CCN(CC)c1ccc(NC(=O)c2cnc3c(-c4ccccc4)c(C)nn3c2C)c(C)c1` was tested. Which survival did it give?
The survival was inactive: 85%.

How did the survival turn out when `COC(=O)C(C)Oc1ccc(N2C(=O)c3ccccc3C2=O)cc1` (centres undefined) was run?
Its survival is inactive: 107%.

For `COc1ccc(NC(=O)CN2C(=O)C3(SCC(=O)N3c3ccccc3)c3ccccc32)cc1Cl` (centres undefined), which survival is on record?
Its survival is inactive: 113%.

How did the survival turn out when `CC(C)NC(=O)CC1Sc2ccccc2NC1=O` (centres undefined) was run?
Its survival is inactive: 97%.

With `O=c1cc(-c2ccc(F)cc2)nc(SCc2nc(-c3cccc(C(F)(F)F)c3)no2)[nH]1` as the compound, how does the survival read?
Its survival is inactive: 80%.

For `Cc1c(C(=O)N(Cc2cccc(F)c2)C2CCS(=O)(=O)C2)oc2cc(Br)ccc12` (centres undefined), which survival is on record?
Its survival is inactive: 57%.

For `COc1ccc(CNC(=O)c2cccc(N3CCCS3(=O)=O)c2)cc1OC`, which survival is on record?
The survival was inactive: 63%.

`CC(C)c1ccc(NC(=O)c2ccc(Cn3nc(N4CCN(c5ccccc5)CC4)ccc3=O)o2)cc1` was tested. Which survival did it give?
The survival was inactive: 76%.

Which survival does the source give for `O=C(Cn1ncn2nc(-c3cccs3)cc2c1=O)NCc1ccccc1Cl` here?
Its survival is inactive: 94%.

With `CCn1c(=NC(=O)c2ccc(S(=O)(=O)N3CCCC3)cc2)sc2cc(Br)ccc21` as the compound, how does the survival read?
Its survival is inactive: 63%.

Which survival does the source give for `CCOC(=O)c1c(C)c(-c2ccccc2)n(CC(=O)NC2CCCCCC2)c1C` here?
Its survival is inactive: 89%.

How did the survival turn out when `CCc1ccc(N2C(=O)CSC23C(=O)N(Cc2cccc(OC)c2)c2ccccc23)cc1` (centres undefined) was run?
Its survival is inactive: 73%.

How did the survival turn out when `C=CCc1ccc(OCc2ccc(C(=O)Nc3ccc(NC(C)=O)cc3)o2)c(OC)c1` was run?
The survival was inactive: 131%.

`Cc1nn(-c2ccccc2)c(Cl)c1C1N2CCCN1CC2` (centres undefined) was tested. Which survival did it give?
The survival was inactive: 98%.

With `O=C(Nc1ccc(NC(=O)C2CCCCC2)nc1)C1CC1` as the compound, how does the survival read?
Its survival is inactive: 90%.

Which survival does the source give for `Cc1cccc(Cn2cnc3c(oc4ccccc43)c2=O)c1` here?
The survival was inactive: 85%.

`COc1cccc(NC(=O)Cn2cc(C(=O)c3ccc(F)cc3)c(=O)c3cc(OC)ccc32)c1` was tested. Which survival did it give?
Its survival is inactive: 85%.

With `N#Cc1ccc(NC2=NS(=O)(=O)c3ccccc32)cc1` as the compound, how does the survival read?
Its survival is inactive: 92%.

With `Cc1cc(C)cc(NC(=O)N2CCC(CN3CCc4ccccc4C3)CC2)c1` as the compound, how does the survival read?
Its survival is inactive: 81%.
